Laboratory results as given in paper PMC5717350, “The human CTF4-orthologue AND-1 interacts with DNA polymerase α/primase via its unique C-terminal HMG box” (Open Biology, 2017).
Substitutions are numbered along the chain they refer to. Names may count otherwise. No constants are given. Whether binding was seen depends on the method and setting. Some results given as binding are weak or reduced against the parent protein; the word gives no strength. Sequences can lack the tags named with a protein.

Sequences of proteins named here, by UniProt entry; tags and fusion partners are left off. A change or cut given only in a name is not applied to a line headed by its entry.
UniProt P09884: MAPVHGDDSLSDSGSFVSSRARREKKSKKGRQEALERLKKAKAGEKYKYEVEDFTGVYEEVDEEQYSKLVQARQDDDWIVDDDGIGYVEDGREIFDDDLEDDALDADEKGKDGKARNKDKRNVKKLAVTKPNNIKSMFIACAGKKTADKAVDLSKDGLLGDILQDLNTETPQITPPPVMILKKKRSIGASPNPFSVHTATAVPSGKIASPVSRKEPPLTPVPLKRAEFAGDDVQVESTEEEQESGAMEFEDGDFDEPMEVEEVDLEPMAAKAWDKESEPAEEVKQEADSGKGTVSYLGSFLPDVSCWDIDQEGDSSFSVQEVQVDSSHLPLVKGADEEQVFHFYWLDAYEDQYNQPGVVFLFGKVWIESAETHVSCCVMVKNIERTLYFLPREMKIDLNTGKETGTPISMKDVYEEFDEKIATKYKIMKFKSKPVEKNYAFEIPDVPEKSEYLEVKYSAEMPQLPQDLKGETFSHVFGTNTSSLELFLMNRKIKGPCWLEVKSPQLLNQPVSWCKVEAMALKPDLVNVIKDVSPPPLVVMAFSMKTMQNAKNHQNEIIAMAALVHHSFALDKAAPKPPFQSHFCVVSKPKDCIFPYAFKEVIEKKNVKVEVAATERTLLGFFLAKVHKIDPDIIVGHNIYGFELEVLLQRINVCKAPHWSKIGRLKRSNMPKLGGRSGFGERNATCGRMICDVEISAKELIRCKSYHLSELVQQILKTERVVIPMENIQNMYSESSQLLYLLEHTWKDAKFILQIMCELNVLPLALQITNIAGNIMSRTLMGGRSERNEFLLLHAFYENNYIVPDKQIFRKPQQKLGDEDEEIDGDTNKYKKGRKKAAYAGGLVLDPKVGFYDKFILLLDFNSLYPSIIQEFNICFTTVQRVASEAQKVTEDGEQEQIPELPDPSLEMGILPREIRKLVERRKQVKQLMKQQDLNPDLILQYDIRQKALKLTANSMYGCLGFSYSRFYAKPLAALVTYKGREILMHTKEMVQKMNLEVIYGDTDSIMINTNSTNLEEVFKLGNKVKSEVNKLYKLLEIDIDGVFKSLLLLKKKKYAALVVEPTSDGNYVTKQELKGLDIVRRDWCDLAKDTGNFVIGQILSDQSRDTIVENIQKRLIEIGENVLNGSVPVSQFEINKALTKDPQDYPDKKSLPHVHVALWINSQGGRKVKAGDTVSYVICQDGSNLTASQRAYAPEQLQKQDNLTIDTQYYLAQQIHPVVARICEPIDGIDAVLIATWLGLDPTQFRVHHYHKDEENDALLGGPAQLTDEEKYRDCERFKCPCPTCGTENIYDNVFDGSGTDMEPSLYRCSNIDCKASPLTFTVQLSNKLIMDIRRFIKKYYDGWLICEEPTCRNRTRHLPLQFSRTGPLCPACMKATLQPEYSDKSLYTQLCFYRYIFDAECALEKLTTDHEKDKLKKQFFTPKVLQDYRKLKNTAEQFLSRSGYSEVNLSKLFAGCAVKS
UniProt P49642: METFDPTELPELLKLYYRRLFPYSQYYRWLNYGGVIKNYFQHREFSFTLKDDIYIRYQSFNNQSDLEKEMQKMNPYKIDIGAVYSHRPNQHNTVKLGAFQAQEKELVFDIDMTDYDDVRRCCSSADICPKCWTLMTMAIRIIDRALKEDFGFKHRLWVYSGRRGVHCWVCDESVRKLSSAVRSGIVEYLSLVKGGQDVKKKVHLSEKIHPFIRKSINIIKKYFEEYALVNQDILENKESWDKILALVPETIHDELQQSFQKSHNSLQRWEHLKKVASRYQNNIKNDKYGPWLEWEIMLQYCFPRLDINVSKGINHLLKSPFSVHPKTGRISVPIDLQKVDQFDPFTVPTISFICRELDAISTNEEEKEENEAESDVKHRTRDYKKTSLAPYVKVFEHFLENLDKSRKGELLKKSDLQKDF
UniProt P49643: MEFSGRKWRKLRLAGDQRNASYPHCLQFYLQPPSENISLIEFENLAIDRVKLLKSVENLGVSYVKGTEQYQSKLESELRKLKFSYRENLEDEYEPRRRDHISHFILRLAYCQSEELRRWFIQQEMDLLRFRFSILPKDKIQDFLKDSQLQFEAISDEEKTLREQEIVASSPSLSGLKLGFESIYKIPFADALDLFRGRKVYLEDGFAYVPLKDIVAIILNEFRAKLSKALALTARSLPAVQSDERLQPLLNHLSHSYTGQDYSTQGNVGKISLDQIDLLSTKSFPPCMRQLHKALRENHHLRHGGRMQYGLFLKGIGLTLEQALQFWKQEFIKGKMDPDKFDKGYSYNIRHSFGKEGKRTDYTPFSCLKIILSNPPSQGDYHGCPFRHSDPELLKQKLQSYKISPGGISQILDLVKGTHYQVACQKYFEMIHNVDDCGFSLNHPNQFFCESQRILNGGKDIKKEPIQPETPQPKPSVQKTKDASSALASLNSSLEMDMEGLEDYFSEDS

Legend:
[1] = biological target: T1, MBP-tagged AND-1 HMG box (1017–1076) M1051E (human) (UniProt O75717); assay: pull-down; MBP-AND-1 constructs bound to 100 µl amylose resin, 25 nmol GST-B added as prey; PD buffer, 2.5 mg/ml BSA, 4°C; eluted with 20 mM maltose; Coomassie; both purified
T1 sequence: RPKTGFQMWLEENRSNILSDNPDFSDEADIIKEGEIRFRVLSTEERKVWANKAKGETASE

[2] = biological target: T2, MBP-tagged AND-1 HMG box (1017–1076) I1047E (human) (UniProt O75717); assay: as above
T2 sequence: T1 sequence with I31E, E35M

[3] = biological target: T3, AND-1 HMG (protein used for size-exclusion chromatography) (human) (UniProt O75717); assay: SEC; 42 nmol GST-B(1–78) and 84 nmol AND-1 HMG in 250 µl on Superdex 200 10/300 GL; 25 mM HEPES pH 7.2, 100 mM KCl, 0.5 mM TCEP; fractions by SDS-PAGE; both purified
T3 sequence: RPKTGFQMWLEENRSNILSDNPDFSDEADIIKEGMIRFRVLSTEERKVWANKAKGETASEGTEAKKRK

[4] = biological target: T4, GST-Pol α (148–171), wild type (human); assay: pull-down; GST-B fusion proteins (in figure 6a also GST-Pol α CIP, equimolar) bound to 100 µl glutathione agarose, 2.2 nmol AND-1 (1–1129, 316–1129 or 336–826) added as prey; PD buffer, 2.5 mg/ml BSA, 4°C; Coomassie, anti-His western blot in figure 6a; both purified
T4 sequence: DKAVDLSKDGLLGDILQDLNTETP

[5] = biological target: Truncated Pol α/primase (PolαΔN-BΔN-PriS-PriL) (human) (UniProt P09884+Q14181+P49642+P49643); assay: pull-down; StrepII-tagged Pol α/primase bound to 100 µl Strep-Tactin Superflow resin, about 2.4 nmol AND-1 added as prey; PD buffer (PBS, 5% glycerol, 0.5 mM TCEP, 0.2% Igepal), 2.5 mg/ml BSA, 4°C; eluted with 10 mM desthiobiotin; Coomassie and anti-His western blot; both purified
[6] = biological target: T5, GST-Pol α (148–171) double alanine mutant I162A, L163A (AA) (human); assay: pull-down; GST-Pol α fusion proteins bound to 100 µl glutathione agarose, 20 nmol AND-1 SepB added as prey; PD buffer, 2.5 mg/ml BSA, 4°C; eluted with 20 mM reduced glutathione; Coomassie; both purified
T5 sequence: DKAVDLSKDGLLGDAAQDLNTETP

[7] = biological target: T6, MBP-tagged AND-1 HMG box (1017–1076), wild type (human) (UniProt O75717); assay: pull-down; MBP-AND-1 constructs bound to 100 µl amylose resin, 25 nmol GST-B added as prey; PD buffer, 2.5 mg/ml BSA, 4°C; eluted with 20 mM maltose; Coomassie; both purified
T6 sequence: T1 sequence with E35M

B1: GST-BNTD (B subunit amino acids 1–78) (domain or fragment, human, UniProt Q14181 1-78, looked up)
chain: MSASAQQLAEELQIFGLDCEEALIEKLVELCVQYGQNEEGMVGELIAFCTSTHKVGLTSEILNSFEHEFLSKRLSKAR
notes: human DNA polymerase α B subunit, residues 1-78 (four-helix bundle N-terminal domain); also called GST-B(1–78); B N-terminal domain; source: E. coli Rosetta2(DE3), purified (Ni-NTA agarose)
**Q.** For B1, which binding [1] is on record?
**A.** no binding (tested: 25 nmol GST-B added)

**Q.** What about the binding [2] of the same binder?
**A.** no binding (tested: 25 nmol GST-B added)

**Q.** What about the binding [3] of the same binder?
**A.** binds

B2: Full-length His10-myc-tagged AND-1 (1–1129) (natural protein, human, UniProt O75717 1-1129, looked up)
chain: MPATRKPMRYGHTEGHTEVCFDDSGSFIVTCGSDGDVRIWEDLDDDDPKFINVGEKAYSCALKSGKLVTAVSNNTIQVHTFPEGVPDGILTRFTTNANHVVFNGDGTKIAAGSSDFLVKIVDVMDSSQQKTFRGHDAPVLSLSFDPKDIFLASASCDGSVRVWQISDQTCAISWPLLQKCNDVINAKSICRLAWQPKSGKLLAIPVEKSVKLYRRESWSHQFDLSDNFISQTLNIVTWSPCGQYLAAGSINGLIIVWNVETKDCMERVKHEKGYAICGLAWHPTCGRISYTDAEGNLGLLENVCDPSGKTSSSKVSSRVEKDYNDLFDGDDMSNAGDFLNDNAVEIPSFSKGIINDDEDDEDLMMASGRPRQRSHILEDDENSVDISMLKTGSSLLKEEEEDGQEGSIHNLPLVTSQRPFYDGPMPTPRQKPFQSGSTPLHLTHRFMVWNSIGIIRCYNDEQDNAIDVEFHDTSIHHATHLSNTLNYTIADLSHEAILLACESTDELASKLHCLHFSSWDSSKEWIIDLPQNEDIEAICLGQGWAAAATSALLLRLFTIGGVQKEVFSLAGPVVSMAGHGEQLFIVYHRGTGFDGDQCLGVQLLELGKKKKQILHGDPLPLTRKSYLAWIGFSAEGTPCYVDSEGIVRMLNRGLGNTWTPICNTREHCKGKSDHYWVVGIHENPQQLRCIPCKGSRFPPTLPRPAVAILSFKLPYCQIATEKGQMEEQFWRSVIFHNHLDYLAKNGYEYEESTKNQATKEQQELLMKMLALSCKLEREFRCVELADLMTQNAVNLAIKYASRSRKLILAQKLSELAVEKAAELTATQVEEEEEEEDFRKKLNAGYSNTATEWSQPRFRNQVEEDAEDSGEADDEEKPEIHKPGQNSFSKSTNSSDVSAKSGAVTFSSQGRVNPFKVSASSKEPAMSMNSARSTNILDNMGKSSKKSTALSRTTNNEKSPIIKPLIPKPKPKQASAASYFQKRNSQTNKTEEVKEENLKNVLSETPAICPPQNTENQRPKTGFQMWLEENRSNILSDNPDFSDEADIIKEGMIRFRVLSTEERKVWANKAKGETASEGTEAKKRKRVVDESDETENQEEKAKENLNLSKKQKPLDFSTNQKLSAFAFKQE
notes: the oligomeric state was measured only on the SepB constructs; also called His-myc-AND-1; human CTF4-orthologue AND-1; source: Sf9 insect cells (baculovirus, MultiBac), purified (Ni-NTA, Q-Sepharose)
**Q.** With B2 as the binder, how does the binding [4] read?
**A.** no binding

**Q.** And the binding [5]?
**A.** no binding (tested: about 2.4 nmol AND-1 added)

B3: AND-1 SepB (336–826) (domain or fragment, human, UniProt O75717 336-826, looked up)
chain: GDFLNDNAVEIPSFSKGIINDDEDDEDLMMASGRPRQRSHILEDDENSVDISMLKTGSSLLKEEEEDGQEGSIHNLPLVTSQRPFYDGPMPTPRQKPFQSGSTPLHLTHRFMVWNSIGIIRCYNDEQDNAIDVEFHDTSIHHATHLSNTLNYTIADLSHEAILLACESTDELASKLHCLHFSSWDSSKEWIIDLPQNEDIEAICLGQGWAAAATSALLLRLFTIGGVQKEVFSLAGPVVSMAGHGEQLFIVYHRGTGFDGDQCLGVQLLELGKKKKQILHGDPLPLTRKSYLAWIGFSAEGTPCYVDSEGIVRMLNRGLGNTWTPICNTREHCKGKSDHYWVVGIHENPQQLRCIPCKGSRFPPTLPRPAVAILSFKLPYCQIATEKGQMEEQFWRSVIFHNHLDYLAKNGYEYEESTKNQATKEQQELLMKMLALSCKLEREFRCVELADLMTQNAVNLAIKYASRSRKLILAQKLSELAVEKAAELTAT
notes: source: E. coli Rosetta2(DE3), purified (Ni-NTA, Q-Sepharose, TEV cleavage, Superdex 200)
**Q.** For B3, which binding [6] is on record?
**A.** no binding (tested: 20 nmol AND-1 SepB added)

B4: GST-BNTD (1–78) I14A (domain or fragment, UniProt Q14181 1-78)
chain: B1 chain with I14A
**Q.** B4 was tested. Which binding [7] did it give?
**A.** no binding (tested: 25 nmol GST-B added)

B5: GST-BNTD (1–78) F15A (domain or fragment, UniProt Q14181 1-78)
chain: B1 chain with F15A
**Q.** Which binding [7] does the source give for B5 here?
**A.** no binding (tested: 25 nmol GST-B added)

B6: GST-BNTD (1–78) I46A (domain or fragment, UniProt Q14181 1-78)
chain: B1 chain with I46A
**Q.** How did the binding [7] turn out when B6 was run?
**A.** no binding (tested: 25 nmol GST-B added)
